Test results: PubChem BioAssay (EPA / NIEHS)
For some of these results: Most of the hits are listed elsewhere, so they are rarer here than in the full data. The list shows a part of the results, in another mix than the full data. The source made the active and inactive calls. Rule for the calls: active = hit-call score of the fitted dose curve at least 0.9, where 1 is the maximum; inactive = score below 0.9.

Read-out: Low-density lipoprotein receptor (LDLR), LDLR (gene 3949)
Experiment: BSK_CASM3C_LDLR: BioMAP Diversity Plus: CASM3C Assay for Low-density lipoprotein receptor (LDLR) Biomarker Activity (AID 2283045);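 note: LDLR protein level on the cell surface quantified by ELISA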
Settings: actives raise or lower the signal; primary human coronary artery smooth muscle cells

Q: For CC(CCC(=O)O)(c1ccc(O)cc1)c1ccc(O)cc1, which outcome is on record?
A: inactive

Q: For CC(C)CCCCCCc1ccc(O)cc1, which AC50 is on record?
A: active: 33.3 µM

Q: For c1ccc2c(c1)c1cccc3ccc4cccc2c4c31, which outcome is on record?
A: inactive

Read-out: serum amyloid A (SAA), SAA1 (gene 6288)
Experiment: BSK_CASM3C_SAA: BioMAP Diversity Plus: CASM3C Assay for serum amyloid A (SAA) Biomarker Activity (AID 2283049);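 note: SAA protein level quantified by ELISA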
Settings: actives raise or lower the signal; primary human coronary artery smooth muscle cells

Q: For CC(=O)O[C@]1(C(C)=O)CC[C@H]2[C@@H]3C=C(Cl)C4=CC(=O)[C@@H]5C[C@@H]5[C@]4(C)[C@H]3CC[C@@]21C, which outcome is on record?
A: inactive

Q: With Cc1ccc(C(C)C)c(O)c1 as the molecule, how does the outcome read?
A: inactive

Q: For Cc1cc(Cc2ccc(N)c(C)c2)ccc1N, which outcome is on record?
A: inactive

Read-out: Collagen III, COL3A1 (gene 1281)
Experiment: BSK_hDFCGF_CollagenIII: BioMAP Diversity Plus: hDFCGF Assay for Collagen III Biomarker Activity (AID 2283056)
Settings: actives raise or lower the signal; primary human foreskin fibroblasts
Procedure, shortened: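 Human foreskin fibroblast primary cultures sampled 24 h after dosing; Collagen III quantified by ELISA. Signal fitted bidirectionally against DMSO baseline.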

Q: For O=C(OC[C@H]1O[C@@H](OC(=O)c2cc(O)c(O)c(OC(=O)c3cc(O)c(O)c(O)c3)c2)[C@H](OC(=O)c2cc(O)c(O)c(OC(=O)c3cc(O)c(O)c(O)c3)c2)[C@@H](OC(=O)c2cc(O)c(O)c(OC(=O)c3cc(O)c(O)c(O)c3)c2)[C@@H]1OC(=O)c1cc(O)c(O)c(OC(=O)c2cc(O)c(O)c(O)c2)c1)c1cc(O)c(O)c(OC(=O)c2cc(O)c(O)c(O)c2)c1, which outcome is on record?
A: inactive

Q: For O=C(OCCCCCCOC(=O)c1ccccc1)c1ccccc1, which outcome is on record?
A: inactive

Q: For CCCCN1C(=O)[C@@H]([C@H](O)C2CCCCC2)NC(=O)C12CCN(Cc1ccc(Oc3ccc(C(=O)O)cc3)cc1)CC2, which AC50 is on record?
A: active: 20 µM

Read-out: not listed separately
Experiment: BSK_hDFCGF_Proliferation: Cell Proliferation Assessment in the BioMAP Diversity Plus: hDFCGF Assay (AID 2283059);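 note: curves fitted for both rise and fall of signal versus DMSO baseline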
Settings: primary human foreskin fibroblasts
Procedure, shortened: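 Steps: dose primary human dermal fibroblasts (foreskin); […] fix in 10% TCA; stain with 0.1% SRB; read 560 nm; fit gain or loss of signal against DMSO.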

Q: With c1ccc(C(O[C@@H]2CCCN(CCc3ccc4c(c3)OCO4)C2)c2ccccc2)cc1 as the molecule, how does the AC50 read?
A: active: 12.5 µM

Q: For COc1ccc(OC(F)(F)F)cc1CN[C@H]1CCCN[C@H]1c1ccccc1, which AC50 is on record?
A: active: 19.7 µM

Q: Which AC50 does the source give for Nc1ccc(N)c(Cl)c1 here?
A: active: 8.34 µM

Read-out: not listed separately
Experiment: BSK_hDFCGF_SRB: Viability Assessment in the BioMAP Diversity Plus: hDFCGF Assay (AID 2283061);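 note: cells exposed to compound for 24 h before the read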
Settings: primary human foreskin fibroblasts
Procedure, shortened: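 Human foreskin fibroblasts in 96-well plates were treated 24 h. Total protein was measured by 0.1% SRB staining after 10% TCA fixation, read at 560 nm. Data were fitted bidirectionally against DMSO.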

Q: For C=C(C)C(=O)O[C@H]1C[C@@H]2CC[C@@]1(C)C2(C)C, which AC50 is on record?
A: active: 27.1 µM

Q: With O=C(Nc1ccc2c(O)c(N=Nc3ccc(N=Nc4ccc(S(=O)(=O)O)cc4)cc3)c(S(=O)(=O)O)cc2c1)c1ccccc1 as the molecule, how does the AC50 read?
A: active: 29.5 µM

Q: Which outcome does the source give for Cn1c(=O)c2[nH]cnc2n(C)c1=O here?
A: inactive

Read-out: Matrix Metallopeptidase 1 (MMP1), MMP1 (gene 4312)
Experiment: BSK_hDFCGF_MMP1: BioMAP Diversity Plus: hDFCGF Assay for Matrix Metallopeptidase 1 (MMP1) Biomarker Activity (AID 2283064)
Settings: actives raise or lower the signal; primary human foreskin fibroblasts
Procedure, shortened: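 Human foreskin fibroblasts exposed to chemical for 24 h; MMP1 detected by ELISA, with DMSO as baseline for bidirectional fitting.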

Q: Which outcome does the source give for CCN(CC)c1ccc(N=Nc2ccccc2)cc1 here?
A: inactive

Q: Which AC50 does the source give for CC1=C(/C=C/C(C)=C/C=C/C(C)=C/C(=O)O)C(C)(C)CCC1 here?
A: active: 31.7 µM

Q: Which outcome does the source give for CO[C@H]1/C=C/O[C@@]2(C)Oc3c(C)c(O)c4c(O)c(c(/C=N/N5CCN(C)CC5)c(O)c4c3C2=O)NC(=O)/C(C)=C\C=C\[C@H](C)[C@H](O)[C@@H](C)[C@@H](O)[C@@H](C)[C@H](OC(C)=O)[C@@H]1C here?
A: inactive

Q: With N=C(N)c1ccc(OCCCCCOc2ccc(C(=N)N)cc2)cc1 as the molecule, how does the AC50 read?
A: active: 21.9 µM

Q: With CCCCCCC(C=O)=Cc1ccccc1 as the molecule, how does the outcome read?
A: inactive

Q: With NNC(=O)c1ccncc1 as the molecule, how does the outcome read?
A: inactive

Read-out: TIMP metallopeptidase inhibitor 2 (TIMP2), TIMP2 (gene 7077)
Experiment: BSK_KF3CT_TIMP2: BioMAP Diversity Plus: KF3CT Assay for TIMP metallopeptidase inhibitor 2 (TIMP2) Biomarker Activity (AID 2283071)
Settings: actives raise or lower the signal; primary human keratinocytes with fibroblasts
Procedure, shortened: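 ELISA readout of TIMP-2 in keratinocyte plus foreskin fibroblast co-cultures (human skin primary cells), 24 h post-dose. Gain or loss of signal fitted relative to DMSO.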

Q: For O=C=NCCCCCCN=C=O, which outcome is on record?
A: inactive

Q: With C[C@](N)(Cc1ccc(O)c(O)c1)C(=O)O as the molecule, how does the outcome read?
A: inactive

Q: With OCCC(F)(F)C(F)(F)C(F)(F)C(F)(F)C(F)(F)C(F)(F)F as the molecule, how does the outcome read?
A: inactive

Q: Which AC50 does the source give for CCCCC(CC)COC(=O)CC(C(=O)OCC(CC)CCCC)S(=O)(=O)O (stereo not drawn) here?
A: active: 11.7 µM

Read-out: not listed separately
Experiment: CEETOX_H295R_OHPREG: CeeTox H295R High-throughput Steroidogenesis Assay for OH-Pregnenolone (OHPREG) (AID 2283434)
Settings: actives raise or lower the signal

Q: With C[C@](N)(Cc1ccc(O)c(O)c1)C(=O)O as the molecule, how does the outcome read?
A: inactive

Q: For CC1=C(/C=C/C(C)=C/C=C/C(C)=C/C(=O)O)C(C)(C)CCC1, which outcome is on record?
A: inactive

Q: With C[C@]12C=CC(=O)C=C1CC[C@@H]1[C@@H]2C(=O)C[C@@]2(C)[C@H]1CC[C@]2(O)C(=O)CO as the molecule, how does the outcome read?
A: inactive
